# Out of some 340,000 compounds screened, about 12,000 (3.5%) were called active. Inconclusive results, whose numbers are uncertain, are shown with a selection of clear calls. Calls come from the whole dose curve; as a rule, active = well fitted inhibition curve with a large enough effect; inconclusive = small, poorly fitted or top-dose-only effect, or another doubt; inactive = no such curve, though single readings can be large or run the other way. No potency is given beside an inconclusive call; the fits are too rough.
# Test: qHTS Assay for Inhibitors of Hepatitis C Virus (HCV)
# Conditions: Huh7.5.1 HCVcc-Cre (HCVcc is cell-culture hepatitis C virus) infection, luciferase reporter, 44 h; activity change, negative = inhibition: at 41.8 µM (top of the series) unless noted
# How it was run: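 1,000 cells/well; 4 h culture; + compound; + HCVcc-Cre (~0.5 moi); 44 h; luciferase substrate, RT 15 min; read 15 sec.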
# % is set by controls: 0 for no effect and ±100 for the full control effect; potency is the fitted concentration of half-maximal effect; tags give direction and shape of the fitted curve.
SMILES,Potency,"activity change, negative = inhibition"
COc1cc(NC(=O)c2ccco2)c(OC)cc1NC(=O)CCC(=O)Nc1cccc(C)c1C,"inconclusive [inhibitor, partial curve]",
CCOC(=O)[C@H]1[C@H]2COc3ccc(Br)cc3[C@@H]2N2C(=O)c3c(C)cc(C)cc3NC(=O)[C@@]12C,"inconclusive [inhibitor, single point]",
CCOc1ccc(CCNC(=O)c2cc(=O)[nH]c3ccc(S(=O)(=O)N(CC)CC)cc23)cc1OCC,"inconclusive [inhibitor, partial curve]",
COc1ccc(S(=O)(=O)N(C)c2ccc(C(=O)NC3CC3)cc2)cc1,"inconclusive [inhibitor, single point]",
COc1ccc(N2CCN(C(=O)CCC(=O)N3CCOc4ccc(Cl)cc43)CC2)cc1,"inconclusive [inhibitor, single point]",
COc1cc(C(=O)OCC(=O)c2ccccc2)cc2c1OCCO2,"inconclusive [inhibitor, single point]",
Cc1ccc(C(=O)Nc2cccc(C(=O)N3CCOCC3)c2)cc1Cl,"inconclusive [inhibitor, full curve]",
CCOc1ccc(NCc2nnc(SCC(=O)Nc3cc(C)on3)n2-c2ccccc2OC)cc1,"inconclusive [inhibitor, single point]",
C[C@]12C(=O)N(c3ccc(Br)cc3)C(=O)N1[C@@H]1c3ccccc3OC[C@@H]1[C@H]2c1ccccc1,"inconclusive [inhibitor, full curve, poor fit]",
COc1ccc(CCNc2nc(C)nc3c2oc2ccccc23)cc1OC,"inconclusive [inhibitor, partial curve]",
O=C(Cc1ccc(Cl)cc1)NC1CCCN(Cc2ccccc2F)C1 (centres undefined),,inactive: -9.36%
O=C(CNc1cc([N+](=O)[O-])ccc1NCCO)Nc1cccc(S(=O)(=O)N2CCCCC2)c1,"inconclusive [inhibitor, full curve]",
CC(C)(CCl)C(=O)Nc1ccnc(-c2ccncc2)n1,,inactive: -6.19%
OCC[C@H]1C[C@@H](O)[C@H](O)[C@@]2(CCCCO2)O1,,inactive: -11.5% [at 8.37 µM]
Cc1ccc(-c2nnc3n2N=C(c2ccccc2Br)CS3)cc1,"inconclusive [inhibitor, single point]",
O=C(NCc1ccc(F)cc1)c1noc2c1CCCCC2,"inconclusive [inhibitor, single point]",
COc1cc(NC2c3ccccc3C(=O)N2c2ccc(C)cn2)cc(OC)c1OC (centres undefined),"inconclusive [inhibitor, partial curve]",
Cc1cc(C)n(-c2ccc(Cl)c(C(=O)Nc3ccc(-c4nnc5n4CCCCC5)cc3)n2)n1,"inconclusive [inhibitor, single point]",
CNS(=O)(=O)c1cccc(C(=O)OCCCOC(=O)c2cccc(S(=O)(=O)NC)c2)c1,active: 11.2 µM,
COc1ccc2c(c1)[nH]c1c(=O)n(CCN3CCCC3)cnc12,,inactive: -11.8%
N=c1ccn(Cc2c(Cl)cccc2Cl)cc1,"inconclusive [inhibitor, partial curve]",
CCS(=O)(=O)N1Cc2ccccc2CC1C(=O)Nc1ccc(OC)cc1 (centres undefined),,inactive: -16.2%

SMILES,Potency,"activity change, negative = inhibition"
COc1ccc(NC(=O)N2CCC(c3nc4ccccc4[nH]3)CC2)cc1,,inactive: 3.1%
CCOC(=O)c1c(S(=O)(=O)N2CCN(c3ccc(C(C)=O)cc3)CC2)c(C)n(C)c1C,,inactive: 4%
N#C/C(=C\c1cccs1)C(=O)c1ccccc1Cl,"inconclusive [inhibitor, single point]",
COc1ccc(Br)cc1/C=C/c1ccc2cccc(O)c2n1,"inconclusive [inhibitor, full curve]",
Cn1nc(-c2ccccc2)c(/C=N/O)c1Cl,,inactive: -4.12%
O=[N+]([O-])c1cc(Br)c(O)c(/C=N/Nc2nnnn2-c2cccc3ccccc23)c1,,inactive: 9.83%
CC1CC(NC(=O)c2cc3c(=O)n4ccccc4nc3n2C)CC(C)(C)C1 (centres undefined),"inconclusive [inhibitor, single point]",
CCn1c(SCC(=O)N2CCN(c3ccccc3)CC2)nnc1-c1cc2cc(Cl)ccc2o1,"inconclusive [inhibitor, single point]",
Cc1ccc(CNC(=O)C2CC3Cn4c(nc5cc(C)c(C)cc54)C3N2C)o1 (centres undefined),,inactive: 26.7%
COC1(C)CC2C(CC1OC(=O)c1cc([N+](=O)[O-])cc([N+](=O)[O-])c1)C2(C)C (centres undefined),"inconclusive [inhibitor, partial curve]",
O=C(NCc1ccccc1)c1onc(CSc2ccccc2)c1C(=O)NCC1CC1,active: 10 µM,
COc1ccccc1NS(=O)(=O)c1ccc(NC(=O)c2ccncc2)cc1,"inconclusive [inhibitor, partial curve]",
CCOc1ccc(NC(=O)C(=S)NC2CCCCC2)cc1,,inactive: 2.86%
COC(=O)c1ccc(/C=N/NC(=O)CNc2cccc(C)c2)cc1,"inconclusive [inhibitor, single point]",
COc1cc(/C=C/C(=O)NNc2c(F)c(F)cc(F)c2F)ccc1OC(F)F,"inconclusive [inhibitor, full curve]",
Cc1onc(-c2ccccc2)c1C(=O)Nc1cc(C(F)(F)F)ccc1N1CCOCC1,"inconclusive [inhibitor, partial curve]",
CC(CN1C(C)CCCC1C)OC(=O)c1cccc(Br)c1 (centres undefined),,inactive: 15.7%
CCCCNC(=O)CN1CCC2(O)CCCCC2C1c1ccccc1OC (centres undefined),,inactive: -2.21%
O=[N+]([O-])c1cccc(CN2CCN(Cc3ccc(Br)cc3)CC2)c1,active: 22.4 µM,
O=C(NCCCN1CCOCC1)c1cc2c([nH]c3ccccc32)c(-c2cccc(Br)c2)n1,"inconclusive [inhibitor, partial curve]",
COc1ccc2c(CC(=O)NCc3cccs3)coc2c1,"inconclusive [inhibitor, single point]",
Cc1cccc[n+]1C1C(c2ccccc2)C(C#N)=C(C(=C=[N-])C#N)NC1(O)C1CC1 (centres undefined),"inconclusive [inhibitor, single point]",
